Values joined by “and” are separate entries in the source; they are usually repeats but may differ in a detail not shown here. Equal values may be shown once. The whole screen tested about 94,000 compounds, of which about 4,000 (4.3%) were called active. The inconclusive results got no clear call from the source; some entries with a clear call stand among them for comparison. The call rests on the fitted dose curve; in most records, active means well fitted inhibition curve with a large enough effect; inconclusive means small, poorly fitted or top-dose-only effect; inactive means no such curve, though single readings can be large or run the other way. Potencies of inconclusive entries are doubtful fits and often do not repeat.
Test: Cytotoxic Profiling in NIH 3T3 Cell Line of Diverse Libraries Using Quantitative High-Throughput Screening; further: nearly all actives have a fitted effect of over 55% in size
Settings: NIH 3T3 viability, CellTiter-Glo ATP luminescence, 48-72 h; series mostly up to 96.7 µM
Method in brief: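 Cytotoxicity is measured as loss of cellular ATP: NIH 3T3 cells (400/well) are exposed to compound for 48 or 72 hr at 37 °C, then CellTiter-Glo luminescence is imaged after 10 min at room temperature.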
For `Cc1c(Cl)cccc1NC(=O)C[C@H]1NC(=O)c2ccccc2NC1=O`, the Potency was inconclusive: 50.1 µM [inhibitor, partial curve, poor fit]. In the case of `O=C(NCC1CCN(c2cc(-c3ccc(Cl)cc3)[nH]n2)CC1)c1ccc[nH]1`, the Potency is reported as active: 22.4 µM. In the case of `C#CCNC(=O)c1cc(-c2ccc(Cl)cc2Cl)c2nncn2n1`, the Potency is reported as inconclusive: 112 µM [inhibitor, partial curve, poor fit]. In the case of `O=C(c1cc(F)ccc1Cl)N1CCN(c2cc(-c3ccc(F)cc3)[nH]n2)CC1`, the Potency is reported as inconclusive: 11.2 µM [inhibitor, partial curve, poor fit]. For `COCCC(=O)Nc1cccnc1OC1CCN(C)C1` (stereo not drawn), the Potency was “inactive”. For `Cn1cc(-c2ccc3c(n2)CN(Cc2ccc(F)cc2)C(=O)CO3)cn1`, the Potency was inconclusive: 56.2 µM [inhibitor, partial curve, poor fit]. With `CC(C)CNC(=O)C(NC(=O)c1ccccc1Cl)C1CCN(C(=O)c2ccccc2F)CC1` (stereo not drawn) the Potency was “inactive”. In the case of `CN1C(=O)c2ccccc2CC12CCCN(C(=O)c1ccc(Cl)cc1)C2` (stereo not drawn), the Potency is reported as inconclusive: 44.7 µM [inhibitor, partial curve, poor fit]. With `Cc1cc(C(=O)N2CC(F)(F)C[C@H]2c2nc(C)no2)on1` the Potency was “inactive”. In the case of `COc1ccc(-c2cc(N3CCCC(NC(=O)c4cc(Cl)ccc4F)C3)n[nH]2)cc1` (stereo not drawn), the Potency is reported as inconclusive: 44.7 µM [inhibitor, partial curve, poor fit]. For `COc1cccc(C(=O)NCCNC(=O)c2cccc(-c3ccc(C(F)(F)F)cc3)c2)c1`, the Potency was “inactive”. In the case of `COCCN1C(=O)c2cccn2CC1CNC(=O)c1cccc(OC)c1` (stereo not drawn), the Potency is reported as “inactive”. With `O=C(NCc1ccccc1)C1=NO[C@@H]2CN(Cc3cccc(F)c3F)C[C@H]12` the Potency was “inactive”. With `Cn1c2c(c3ccccc31)CN(C(=O)c1ccccc1)CC2` the Potency was inconclusive: 39.8 µM [inhibitor, partial curve]. With `C[C@H]1[C@@H]2[C@@H](O)C([C@H](C)C(=O)NCc3cc(F)cc(F)c3)CC[C@@]2(C)CC[C@@H]1NC(=O)c1ccccn1` (stereo partly drawn) the Potency was inconclusive: 89.1 µM [inhibitor, single point]. For `Cc1cc(C(=O)N2CCC3(CC(=O)Nc4ccccc4N3)C2)ccc1Cl` (stereo not drawn), the Potency was inconclusive: 17.8 µM [inhibitor, partial curve, poor fit]. In the case of `O=c1cc(-c2cccnc2)oc2c(-c3ccccc3Oc3ccccc3)nccc12`, the Potency is reported as inconclusive: 4.47 µM [inhibitor, full curve, poor fit]. In the case of `Cc1ccccc1C(=O)N1CCN(C(=O)c2cccc(-c3ccccn3)c2)CC1`, the Potency is reported as inconclusive: 63.1 µM [inhibitor, partial curve, poor fit]. For `Cc1ccccc1-c1cnc2[nH]cc(CC(=O)NCCN(C)C)c2c1`, the Potency was inconclusive: 50.1 µM [inhibitor, partial curve, poor fit]. With `Cc1cccc(C(=O)N2CCC3(CC2)CC(N(Cc2ccc(F)cc2)C2CC2)CCO3)c1` (stereo not drawn) the Potency was inconclusive: 39.8 µM [inhibitor, partial curve, poor fit]. For `COc1ccc(-c2ccnc3nc(C(C)C)nn23)cc1`, the Potency was inconclusive: 31.6 µM [inhibitor, full curve]. In the case of `O=C(NCC1Cn2cccc2CN1Cc1ccccc1)NC1CCCCC1` (stereo not drawn), the Potency is reported as inconclusive: 44.7 µM [inhibitor, partial curve, poor fit]. For `CN1C(=O)C2(CCN(Cc3ccsc3)C2)c2ccccc21` (stereo not drawn), the Potency was inconclusive: 89.1 µM [inhibitor, partial curve, poor fit]. With `CN1C(=O)C2(CCN([S+](=O)([O-])c3cccs3)C2)c2ccccc21` (stereo not drawn) the Potency was “inactive”. In the case of `COc1ccccc1-c1cccc(CN2CCCC(C(=O)Nc3ccccc3F)C2)c1` (stereo not drawn), the Potency is reported as inconclusive: 44.7 µM [inhibitor, partial curve, poor fit]. With `Cc1ccc(C(=O)NC2CCCN(Cc3ccc(-c4cc(C)cc(C)c4)cc3)C2)cc1` (stereo not drawn) the Potency was “inactive”. With `COCCNC(=O)c1ccc2c(c1)OCCN(c1ccccc1)C2` the Potency was inconclusive: 25.1 µM [inhibitor, full curve]. In the case of `Cc1ccc([S+](=O)([O-])N2CCC(c3nn(-c4ccccn4)c(=O)[nH]3)CC2)cc1`, the Potency is reported as inconclusive: 11.2 µM [inhibitor, partial curve, poor fit]. For `O=C(c1cn[nH]c1)N1CC2(CN(Cc3cccc(Cl)c3)CC2COc2ccccc2)C1` (stereo not drawn), the Potency was active: 79.4 µM. With `COc1ccc(-c2nc3c(c(-c4ccccc4)n2)CN(C(=O)c2ccc(F)cc2)CC3)cc1` the Potency was inconclusive: 39.8 µM [inhibitor, partial curve, poor fit]. With `CCOC(=O)CNC(=O)N1CC2(CCCCC2)CC1COc1ccc(OC)cc1` (stereo not drawn) the Potency was “inactive”. With `COc1ccc(CC(=O)N2Cc3[nH]cnc3C[C@H]2c2nc(-c3ccc4ccccc4c3)no2)cc1` the Potency was inconclusive: 79.4 µM [inhibitor, partial curve]. In the case of `COc1ccccc1-c1onc(C)c1C(=O)NCCC(c1ccccc1)c1ccccc1`, the Potency is reported as active: 31.6 µM. In the case of `COc1ccc(-c2cc(C(=O)Nc3ccccc3F)c3cnn(C)c3n2)cc1`, the Potency is reported as inconclusive: 44.7 µM [inhibitor, partial curve, poor fit]. For `O=c1c2c(n(Cc3cccnc3)n1CCc1ccccc1)CN(Cc1ccc3c(c1)CCO3)CC2`, the Potency was inconclusive: 56.2 µM [inhibitor, partial curve, poor fit]. In the case of `O=C(Cc1c(F)cccc1Cl)N1C[C@@H](CO)[C@H](c2ccccn2)C1`, the Potency is reported as “inactive”. For `COc1ccc2c(c1)C(COCc1ccc(S(C)(=O)=O)cc1)CC(C)(C)O2` (stereo not drawn), the Potency was inconclusive: 17.8 µM [inhibitor, full curve]. With `COc1ccc(CC(=O)N2CCc3cn(C)c4cccc(c34)C2)cc1` the Potency was inconclusive: 44.7 µM [inhibitor, partial curve, poor fit]. With `COCc1nc(C2CC(NC(=O)c3nn(C)c4c3CCCC4)C2)cc(=O)[nH]1` (stereo not drawn) the Potency was “inactive”. With `CN1C[C@@H](NC(=O)CCC(=O)O)C[C@H]1c1nc(-c2ccc3ccccc3c2)no1` the Potency was “inactive”. With `COc1ccc(-c2ccccc2C(=O)N2CCCC(C)C2)nn1` (stereo not drawn) the Potency was “inactive”. In the case of `O=C1CC2(CCN(Cc3ccncc3)CC2)Oc2ccccc2N1c1ccccc1`, the Potency is reported as inconclusive: 28.2 µM [inhibitor, full curve]. With `COc1ccc2c(c1)OCC(C(=O)NCc1nc3c(s1)CCCC3)C2` (stereo not drawn) the Potency was inconclusive: 56.2 µM [inhibitor, partial curve, poor fit]. With `O=C(COc1ccc(F)cc1)NC1CCN(c2cc(-c3ccccc3)[nH]n2)CC1` the Potency was inconclusive: 44.7 µM [inhibitor, partial curve, poor fit]. For `Cc1ccc([S+](=O)([O-])N2CCC[C@@H]2C(=O)N2CCC(N3CCOC3=O)CC2)cc1`, the Potency was “inactive”. With `CCCCS(=O)(=O)N[C@H]1CN(Cc2c(C)noc2C)C[C@@H]1C(C)C` the Potency was inconclusive: 39.8 µM [inhibitor, partial curve, poor fit]. With `CCn1cc(-c2cc3c(cn2)CN(CCc2ccccc2)CCN3)cn1` the Potency was inconclusive: 89.1 µM [inhibitor, partial curve, poor fit]. With `O=C(COc1ccc(F)cc1)N1CCC(N2C(=O)C3(CCCC3)C2c2ccccc2)CC1` (stereo not drawn) the Potency was inconclusive: 70.8 µM [inhibitor, single point]. For `COC(=O)[C@@H]1Cc2ncn(C(C)C)c2CN1C(C)=O`, the Potency was “inactive”. For `O=C(NCCn1ccn2nc(-c3ccc(F)cc3)cc2c1=O)c1ccco1`, the Potency was inconclusive: 39.8 µM [inhibitor, partial curve, poor fit]. With `O=C1NCCC[C@@H]1NC(=O)[C@@H]1CN(C(=O)C2CCCCC2)CCN1C(=O)c1cccc(F)c1` the Potency was “inactive”. For `CC1Oc2ccc(NC(=O)c3ccc(Cl)cc3)cc2CN(C(C)C)C1=O` (stereo not drawn), the Potency was active: 39.8 µM. With `Fc1ccc(-c2cnc3n[nH]c(-c4ccccc4)c3n2)cc1` the Potency was active: 28.2 µM. In the case of `COCCn1c(=O)n([C@H]2CCCN(C(=O)c3cc4ccccc4[nH]3)C2)c2ncccc21`, the Potency is reported as inconclusive: 14.1 µM [inhibitor, full curve, poor fit]. In the case of `O=C1Nc2ccccc2CC12CCCN(Cc1ccc(C(F)(F)F)cc1)C2` (stereo not drawn), the Potency is reported as inconclusive: 25.1 µM [inhibitor, partial curve, poor fit]. With `O=C(NCCc1ccc(Cl)cc1)c1cn2cc(-c3cccc(C(F)(F)F)c3)sc2n1` the Potency was inconclusive: 44.7 µM [inhibitor, partial curve, poor fit]. With `COc1ccc(-c2[nH]nc3ncc(-c4ccc(C)cc4)nc23)cc1F` the Potency was active: 39.8 µM. With `Cn1cccc1-c1noc(C2CCN(Cc3nc(-c4ccc(F)cc4)no3)CC2)n1` the Potency was inconclusive: 25.1 µM [inhibitor, full curve]. For `COCCN(C)C[C@@H]1CN(C(=O)c2ccc(=O)n(C)c2)C[C@@H]1CO`, the Potency was “inactive”. For `COC(=O)[C@@H]1Cc2nc[nH]c2CN1Cc1ccc(C)cc1`, the Potency was inconclusive: 158 µM [inhibitor, single point]. For `O=C(c1ccncc1)N1CC2CCC(C1)N2Cc1ccc(-c2ccccc2)cc1`, the Potency was inconclusive: 35.5 µM [inhibitor, partial curve, poor fit] and inconclusive: 50.1 µM [inhibitor, partial curve, poor fit]. For `O=S(=O)(c1ccc(F)cc1)N1CCC(Oc2ccc(-c3noc(C4CC4)n3)cc2)C1` (stereo not drawn), the Potency was inconclusive: 25.1 µM [inhibitor, partial curve]. With `N#Cc1ccc(CN2CCc3nc(C(=O)Nc4cccc(C(F)(F)F)c4)oc3CC2)cc1` the Potency was inconclusive: 22.4 µM [inhibitor, full curve].

Source: PubChem BioAssay AID1345082 (National Center for Advancing Translational Sciences (NCATS), 2018)
Potency means the concentration at half of the fitted maximal effect; tags describe the fitted curve by direction and shape.
